Assay results taken from paper PMC4336329 (PLoS ONE, 2015).
The whole screen tested about 310,000 compounds, of which about 2,200 (0.71%) showed an effect of 50% or more. Effects have a minus sign here. The list shows a part of the results.

target: human ether-à-go-go-related gene (hERG) potassium channel (human, UniProt Q12809); assay: primary screen, population patch clamp on CHO cells stably expressing hERG
Sequence (Q12809 whole entry, looked up): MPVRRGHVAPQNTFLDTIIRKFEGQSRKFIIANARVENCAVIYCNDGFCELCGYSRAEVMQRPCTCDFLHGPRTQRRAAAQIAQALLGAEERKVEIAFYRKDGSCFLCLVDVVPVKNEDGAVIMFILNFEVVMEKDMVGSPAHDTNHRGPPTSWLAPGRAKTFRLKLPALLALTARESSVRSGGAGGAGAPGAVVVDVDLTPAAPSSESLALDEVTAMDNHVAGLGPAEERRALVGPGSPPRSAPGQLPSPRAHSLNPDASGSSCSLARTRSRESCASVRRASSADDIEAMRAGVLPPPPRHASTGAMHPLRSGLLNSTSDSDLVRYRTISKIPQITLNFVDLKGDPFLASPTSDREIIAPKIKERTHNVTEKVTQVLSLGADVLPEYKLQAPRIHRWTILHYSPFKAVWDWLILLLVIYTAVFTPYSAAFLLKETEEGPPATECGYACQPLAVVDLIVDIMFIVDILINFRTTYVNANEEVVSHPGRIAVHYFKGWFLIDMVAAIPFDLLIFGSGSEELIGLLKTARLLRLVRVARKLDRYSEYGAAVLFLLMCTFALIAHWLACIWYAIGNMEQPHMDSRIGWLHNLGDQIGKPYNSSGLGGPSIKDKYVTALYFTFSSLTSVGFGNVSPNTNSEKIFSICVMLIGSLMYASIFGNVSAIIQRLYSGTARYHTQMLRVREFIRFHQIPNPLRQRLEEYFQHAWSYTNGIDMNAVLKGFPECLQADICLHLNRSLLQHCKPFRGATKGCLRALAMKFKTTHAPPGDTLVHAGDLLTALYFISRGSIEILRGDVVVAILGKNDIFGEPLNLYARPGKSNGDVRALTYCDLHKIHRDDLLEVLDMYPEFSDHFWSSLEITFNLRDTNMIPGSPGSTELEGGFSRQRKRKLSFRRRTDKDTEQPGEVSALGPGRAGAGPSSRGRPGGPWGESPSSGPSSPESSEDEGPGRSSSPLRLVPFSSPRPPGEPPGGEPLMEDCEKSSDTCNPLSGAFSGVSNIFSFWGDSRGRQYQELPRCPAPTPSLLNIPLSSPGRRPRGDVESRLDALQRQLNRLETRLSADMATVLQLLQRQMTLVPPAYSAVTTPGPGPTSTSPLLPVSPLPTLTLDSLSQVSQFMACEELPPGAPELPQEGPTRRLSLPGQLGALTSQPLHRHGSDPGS

Compound | hERG current change (%, negative = inhibition) at 1uM
NC(=S)N/N=C/c1ncc(C(F)(F)F)cc1Cl | 16.9%
Cn1c(Cn2c(=O)sc3ccccc32)nnc1SCC(=O)N1CCCc2ccccc21 | 1.01%
CC(C)N(Cc1nccn1C)C(=O)CC1C(=O)NCCN1Cc1ccc(F)cc1 (stereo not drawn) | 22.2%
Cc1cccc(NC(=O)CCC2CCN(C(=O)c3ccc(C)s3)CC2)c1 | -0.131%
Cc1cc([N+](=O)[O-])cc([N+](=O)[O-])c1NCC(C)C | 8.35%
CCOc1ccc(N(C)S(=O)(=O)c2csc(C(N)=O)c2)cc1 | 7.47%
Cl.O=C(CCc1ccc(S(=O)(=O)N2CCOCC2)cc1)N1CCN(Cc2ccc3c(c2)OCO3)CC1 | -12.4%
COc1cc(NC(=S)NC(=O)c2ccccc2F)ccc1NC(=O)c1cccs1 | 7.13%
Cc1ccc(C)c(N2CCN(C(=O)CCS(=O)(=O)c3ccc4c(c3)oc(=O)n4C)CC2)c1 | 3.59%
Cc1ccc(-c2nc(CN3CCCCC3)cc(CN3CCCCC3)c2O)cc1.Cl | -15.5%
Cc1nn(C)c(C)c1CN(Cc1nc(CCC(C)C)no1)C(C)C | 9.86%
O=C(Cc1ccccc1)CC1(O)C(=O)Nc2ccccc21 (stereo not drawn) | 9.09%
Cc1cc(C)c(S(=O)(=O)N2CCOC2CNC(=O)C(=O)NCCN2CCOCC2)c(C)c1 (stereo not drawn) | 8.69%
Cc1ccc(S(=O)(=O)NCC(=O)N(CC(=O)NCc2ccccc2)CC2CCCO2)cc1 (stereo not drawn) | 2.53%
O=C(C(c1ccccc1)c1ccccc1)N1CCN(Cc2ccco2)CC1.O=C(O)C(=O)O | 5.13%
CC(=O)NS(=O)(=O)c1ccc(NC(=O)/C=C/c2ccccc2Cl)cc1 | 10.7%
O=C(Cn1c(=O)oc2ccccc21)c1ccccc1 | 3.89%
COc1ccccc1C(=O)NC(CCSC)C(=O)OC(C)C(N)=O (stereo not drawn) | 6.16%
O=C(Cc1ccccc1)Nc1c(Cl)ccc2nsnc12 | 8.42%
CCCN1Cc2cccc(C(=O)Nc3ccc4c(c3)OCO4)c2C1=O | 8.55%
COC(=O)c1nn(-c2ccccc2)c(Sc2ccc(OC)cc2)c1/C=N/O | 7.75%
O=Nc1ccc(O)c2ncccc12 | 8.63%
COc1ccc(S(=O)(=O)N(CC(=O)N2CCOCC2)Cc2ccccc2)cc1 | 3.47%
CCOc1ccccc1NC(=O)Cc1c(F)cccc1Cl | 2.79%
